Test results: US10299477B2 (priority 2015, dated 2019)

What was measured:
Type in all cases: in vivo
[1] = test system: Blumeria graminis f sp. hordei; assay: Test Example D: Powdery mildew on barley; conditions: for Test D control value (powdery mildew on barley): preventive, control value class; for Test D (control value class, powdery mildew on barley): in vivo
Source text: [Test Example D] Powdery Mildew on Barley
After the sprayed dilutions were dried, conidia of Blumeria graminis f sp. hordei were inoculated to the plants by shaking off.

Alternaia brassicicola = assay: Test Example C: Alternaria sooty spot on cabbage; conditions: for Test C control value (Alternaria sooty spot on cabbage): preventive, control value class; for Test C (control value class, Alternaria sooty spot on cabbage): in vivo
Source text: [Test Example C] Alternaria Sooty Spot on Cabbage
Seeds of a test plant (cabbage variety: Shikidori) were planted followed by cultivating until the cotyledons extended.

Botrytis cinerea = assay: Test Example B: Gray mold on tomato; conditions: for Test B control value (gray mold on tomato): preventive, control value class; for Test B (control value class, gray mold on tomato): in vivo
Source text: [Test Example B] Gray Mold on Tomato
Seeds of a test plant (tomato variety: Oogata Fukuju) were planted followed by cultivating until three to five first leaves (true leaves) appeared.

Puccinia recondita = assay: Test Example E: Brown rust on wheat; conditions: for Test E control value (brown rust on wheat): preventive, control value class; for Test E (control value class, brown rust on wheat): in vivo
Source text: [Test Example E] Brown Rust on Wheat

Plasmopara viticola = assay: Test Example G: Downy mildew on vine; conditions: for Test G control value (downy mildew on vine): 250 ppm spray (2.5 ml/pot), preventive, control value class; for Test G (control value class): 250 ppm spray; for Test G (control value class, downy mildew on vine): 250 ppm, sprayed 2.5 ml/pot before inoculation
Source text: [Test Example G] Downy Mildew on Vine
Seeds of a test plant (grape variety: Neomuscat) were planted followed by cultivating until three to four first leaves appeared. […] After the sprayed dilutions were dried, a zoosporangia suspension (1-2×10^4 zoosporangia/ml) of Plasmopara viticola was inoculated to the plants by spraying.

[2] = evaluated 7-10 days after inoculation
[3] = powdery mildew on barley, 250 ppm spray
[4] = Alternaria sooty spot on cabbage, 250 ppm spray
[5] = gray mold on tomato, Botrytis cinerea, 250 ppm spray
[6] = brown rust on wheat, Puccinia recondita, 250 ppm spray
[7] = downy mildew on vine, Plasmopara viticola, 7-10 days after inoculation

Compound: COc1cc(OC)c(Cl)c(-c2ccc(=O)n(C)c2-c2c(F)cc(Br)cc2F)c1 [Compound 205]
- Test D control value (powdery mildew on barley) ([1]; 250 ppm spray): H (H shows more than 50% of control values)
- Test C control value (Alternaria sooty spot on cabbage) (Alternaia brassicicola; 250 ppm spray): H (H shows more than 50% of control values)
- Test B control value (gray mold on tomato) (Botrytis cinerea; 250 ppm spray): H (H shows more than 50% of control values)
- Test E control value (brown rust on wheat) (Puccinia recondita; 250 ppm spray): H (H shows more than 50% of control values)
- Test G control value (downy mildew on vine) (Plasmopara viticola; 7-10 days after inoculation): H (H shows more than 50% of control values)

Compound: CCn1c(-c2c(F)cccc2F)c(-c2cccc(C)c2)ccc1=O [Compound 219]
- Test D control value (powdery mildew on barley) ([1]; 250 ppm spray): H (H shows more than 50% of control values)
- Test C control value (Alternaria sooty spot on cabbage) (Alternaia brassicicola; 250 ppm spray): H (H shows more than 50% of control values)
- Test B control value (gray mold on tomato) (Botrytis cinerea; 250 ppm spray): H (H shows more than 50% of control values)
- Test E control value (brown rust on wheat) (Puccinia recondita; 250 ppm spray): H (H shows more than 50% of control values)
- Test G control value (downy mildew on vine) (Plasmopara viticola; 7-10 days after inoculation): L (L shows 50% or less of control values)

Compound: COc1cc(F)c(-c2c(-c3ccccc3)cc(Br)c(=O)n2C)c(F)c1 [Compound 782]
- Test D (control value class) ([1]; Powdery mildew on barley, control value=100{1-(n/3)}): H (H shows more than 50% of control values)
- Test C (control value class) (Alternaia brassicicola; Alternaria sooty spot on cabbage, control value=100{1-(n/3)}): H (H shows more than 50% of control values)
- Test B (control value class) (Botrytis cinerea; Gray mold on tomato, control value=100{1-(n/3)}): H (H shows more than 50% of control values)
- Test E (control value class) (Puccinia recondita; Brown rust on wheat, control value=100{1-(n/3)}): H (H shows more than 50% of control values)
- Test G (control value class) (Plasmopara viticola; Downy mildew on vine, 2.5 ml/pot, evaluated 7-10 days after inoculation): H (H shows more than 50% of control values)

Compound: CCn1c(-c2c(F)cc(F)cc2F)c(-c2cccc(OC)c2Cl)cc(Cl)c1=O [Compound 619]
- Test D (control value class, powdery mildew on barley) [1]: H (H shows more than 50% of control values)
- Test C (control value class, Alternaria sooty spot on cabbage) (Alternaia brassicicola): H (H shows more than 50% of control values)
- Test B (control value class, gray mold on tomato) (Botrytis cinerea): H (H shows more than 50% of control values)
- Test E (control value class, brown rust on wheat) (Puccinia recondita): H (H shows more than 50% of control values)
- Test G (control value class, downy mildew on vine) (Plasmopara viticola; [2]): L (L shows 50% or less of control values)

Compound: COc1cc(F)c(-c2c(-c3cccc(F)c3F)ccc(=O)n2C)c(F)c1 [Compound 561]
- Test D (control value class, powdery mildew on barley) [1]: H (H shows more than 50% of control values)
- Test C (control value class, Alternaria sooty spot on cabbage) (Alternaia brassicicola): H (H shows more than 50% of control values)
- Test B (control value class, gray mold on tomato) (Botrytis cinerea): H (H shows more than 50% of control values)
- Test E (control value class, brown rust on wheat) (Puccinia recondita): H (H shows more than 50% of control values)
- Test G (control value class, downy mildew on vine) (Plasmopara viticola; [2]): H (H shows more than 50% of control values)

Compound: CCn1c(-c2c(F)cccc2F)c(-c2cccc(F)c2)cc(Cl)c1=O [Compound 154]
- Test D control value ([1]; Powdery mildew on barley): H (H shows more than 50% of control values)
- Test C control value (Alternaia brassicicola; Alternaria sooty spot on cabbage): H (H shows more than 50% of control values)
- Test B control value (Botrytis cinerea; Gray mold on tomato): H (H shows more than 50% of control values)
- Test E control value (Puccinia recondita; Brown rust on wheat): H (H shows more than 50% of control values)
- Test G control value (Plasmopara viticola; Downy mildew on vine, 250 ppm sprayed before inoculation, 7-10 days after inoculation): L (L shows 50% or less of control values)

Compound: Cc1cc(-c2cccc(Cl)c2F)c(-c2c(F)cccc2F)n(CC(F)F)c1=O [Compound 521]
- Test D (control value class) [1, 3]: H (H shows more than 50% of control values)
- Test C (control value class) (Alternaia brassicicola; [4]): H (H shows more than 50% of control values)
- Test B (control value class) (Botrytis cinerea; [5]): H (H shows more than 50% of control values)
- Test E (control value class) (Puccinia recondita; [6]): H (H shows more than 50% of control values)
- Test G (control value class) (Plasmopara viticola; [7]): L (L shows 50% or less of control values)

Compound: CCN1C(=O)CCC(c2ccc(Br)cc2Cl)=C1c1c(F)cc(F)cc1F [Compound 622]
- Test D (control value class, powdery mildew on barley) [1]: H (H shows more than 50% of control values)
- Test C (control value class, Alternaria sooty spot on cabbage) (Alternaia brassicicola): H (H shows more than 50% of control values)
- Test B (control value class, gray mold on tomato) (Botrytis cinerea): L (L shows 50% or less of control values)
- Test E (control value class, brown rust on wheat) (Puccinia recondita): H (H shows more than 50% of control values)
- Test G (control value class, downy mildew on vine) (Plasmopara viticola; [2]): L (L shows 50% or less of control values)

Compound: CCN1C(=O)CCC(c2cc(F)cc(F)c2F)=C1c1c(F)cccc1F [Compound 436]
- Test D (control value class) [1, 3]: H (H shows more than 50% of control values)
- Test C (control value class) (Alternaia brassicicola; [4]): L (L shows 50% or less of control values)
- Test B (control value class) (Botrytis cinerea; [5]): H (H shows more than 50% of control values)
- Test E (control value class) (Puccinia recondita; [6]): H (H shows more than 50% of control values)
- Test G (control value class) (Plasmopara viticola; [7]): L (L shows 50% or less of control values)
